# From PubChem BioAssay AID686979 (National Center for Advancing Translational Sciences (NCATS), 2013)
# The whole screen tested about 420,000 compounds, of which about 50,000 (12%) were called active. Inconclusive means that the source gave no clear call. Such entries were picked first, then a sample of the others. Calls follow the shape of the dose curve; as a rule, active = well fitted inhibition curve with a large enough effect; inconclusive = small, poorly fitted or top-dose-only effect; inactive = flat fitted curve, though single readings scatter. No potency is given beside an inconclusive call; the fits are too rough.
# Experiment: qHTS for Inhibitors of human tyrosyl-DNA phosphodiesterase 1 (TDP1): qHTS in cells in presence of CPT; also: nearly all actives have a fitted effect of over 55% in size
# Details: chicken DT40 Tdp1-/-;hTDP1 cells + 20 nM CPT, ATP luminescence, 48 h; activity change, negative = growth inhibition: at 46.2 µM (top of the series)
# Procedure, shortened: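 Chicken DT40 Tdp1-/- cells stably complemented with human TDP1 were seeded at 400 cells/well in medium containing 20 nM camptothecin, exposed to pin-transferred compounds, and grown at 37 °C for at least 48 hr. Viability was read as ATP luminescence.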
# % is scaled to controls: 0 for no effect and ±100 for the full control effect; potency is read from the fitted curve at half-maximal effect; tags tell the direction and shape of the fitted curve.
SMILES,Potency,"activity change, negative = growth inhibition"
CCc1c(C)c(C#N)c2nc3ccccc3n2c1NCC1CCCO1 (stereo not given),"inconclusive [inhibitor, single point]",–
COc1ccc(B(O)O)cc1,–,inactive: -10.1%
C=CCn1c(SCC(=O)NC23CC4CC(CC(C4)C2)C3)nc2cc(C(=O)O)ccc2c1=O,–,inactive: -0.013%
Cc1cccn(Cc2c(F)cccc2Cl)c1=O,–,inactive: -4.01%
Cc1nonc1C(=O)N/N=C/c1ccccc1,–,inactive: -13.9%
Cc1nc2cc(NC(=O)COc3ccc(C#N)cc3)ccc2n1-c1ccccc1,"inconclusive [inhibitor, single point]",–
COc1ccc(/C=C/C(=O)c2ccc3ccccc3c2O)cc1CN1CCOCC1,"inconclusive [inhibitor, single point]",–
C=CCNCCCOc1ccc(Cl)cc1Br,"inconclusive [inhibitor, single point]",–
O=C(Oc1ccccc1)c1cccc2cccc(C(=O)Oc3ccccc3)c12,"inconclusive [inhibitor, single point]",–
CCCCNC(=O)C1CCN(S(=O)(=O)c2ccc3c(ccn3CC)c2)CC1,"inconclusive [inhibitor, single point]",–
CC(C)c1ccc(S(=O)(=O)N2CCN(C(=O)c3cccc(S(=O)(=O)N4CCOCC4)c3)CC2)cc1,"inconclusive [inhibitor, single point]",–
CCOc1ccc(-c2nc(CSCC(=O)NCc3ccco3)c(C)o2)cc1,"inconclusive [inhibitor, single point]",–
COc1ccccc1N1CCN(S(=O)(=O)c2ccc3nc(-c4ccccc4)[nH]c3c2)CC1,"inconclusive [inhibitor, single point]",–
COc1cccc(Cn2cccc(NC(=O)Nc3ccccc3C)c2=O)c1,"inconclusive [inhibitor, single point]",–
Cc1c(-c2ccccc2)nc2ccccc2c1C(=O)NCc1cccs1,"inconclusive [inhibitor, partial curve]",–
O=C1Nc2ccc([N+](=O)[O-])cc2OC1CCN1CCOCC1 (stereo not given),–,inactive: 5.01%
COc1ccc(CCNC2=C(Cl)C(=O)N(CCc3ccc(OC)c(OC)c3)C2=O)cc1OC,active: 14.6 µM,–
CC(C)NC(=O)C1CCN(C(=O)c2cc3sccc3n2Cc2ccc(Cl)cc2)CC1,active: 1.64 µM,–
O=C(OCC(=O)N1CCCC1)c1ccc(S(=O)(=O)Nc2ccccc2)cc1,–,inactive: -11.2%
CCOC(=O)N1CCN(C(=O)/C=C/c2cccc([N+](=O)[O-])c2)CC1,"inconclusive [inhibitor, single point]",–
